The target of the assay is T1, biotinylated truncated STAT6 (123-632)-avi (Homo sapiens, UniProt P42226).
T1 sequence (P42226 123-632 limits assumed): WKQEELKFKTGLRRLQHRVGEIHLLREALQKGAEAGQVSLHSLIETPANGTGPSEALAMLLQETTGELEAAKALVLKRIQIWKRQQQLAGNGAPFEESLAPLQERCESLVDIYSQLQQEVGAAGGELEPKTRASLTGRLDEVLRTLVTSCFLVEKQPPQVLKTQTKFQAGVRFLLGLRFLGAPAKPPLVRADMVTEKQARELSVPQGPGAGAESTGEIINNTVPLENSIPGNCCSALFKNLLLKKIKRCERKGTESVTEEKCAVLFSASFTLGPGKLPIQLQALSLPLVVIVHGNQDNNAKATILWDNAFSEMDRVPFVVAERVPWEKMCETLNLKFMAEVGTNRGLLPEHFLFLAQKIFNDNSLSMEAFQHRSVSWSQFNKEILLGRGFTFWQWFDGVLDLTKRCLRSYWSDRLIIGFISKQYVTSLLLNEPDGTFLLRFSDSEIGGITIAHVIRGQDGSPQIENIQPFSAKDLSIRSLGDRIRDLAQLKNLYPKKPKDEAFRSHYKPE
In words: Homogenous Time-Resolved Fluorescence (HTRF) binding assay. Conditions: 0.15 nM biotinylated truncated STAT6 (123-632)-avi, 20 nM fluorescein-labeled probe, 30 minutes at room temperature. On the technique in general: In TR-FRET formats the signal depends on donor and acceptor labels being close together.

Usually IC50 stands for the concentration that inhibits the measured activity by half. High values mean a need for much substance, low ones inhibition by little substance. The compound `COc1ccccc1-c1cc(C2=CCCN(C(=O)CCn3ccnn3)C2)c(F)c2[nH]c(C(=O)N3CCN(C4CC(F)(F)C4)CC3)cc12` [Example I-501] yielded an IC50 of 10000 to 100000 nM. Regarding `COc1cnccc1-c1cc(C2=CCCN(C(=O)CCn3ccnn3)C2)c(F)c2[nH]c(C(=O)N3Cc4cnn(C)c4C3)cc12` [Example I-502], the IC50 fell in the range of 10000 to 100000 nM. With `COc1ccccc1-c1cc(C2=CCCN(C(=O)CCn3cccn3)C2)c(F)c2[nH]c(C(=O)N3Cc4cnn(C)c4C3)cc12` [Example I-503] the figure was 10000 to 100000 nM; with `CCn1cc2c(n1)CN(C(=O)c1cc3c(-c4ccccc4OC)cc(C4=CCCN(C(=O)CCn5ccnn5)C4)c(F)c3[nH]1)C2` [Example I-505], 10000 to 100000 nM. In the case of `COc1ccccc1-c1cc(C(=O)N2CCN(c3ncc(F)cc3OC)CC2)cc2cc(C3=CCCN(C(=O)CCn4ccnn4)C3)n(CC3CC3)c12` [Example I-506], the IC50 was in the range of 10000 to 100000 nM. To `CCn1ncc2c1CN(C(=O)c1cc3c(-c4ccccc4OC)cc(C4=CCCN(C(=O)CCn5ccnn5)C4)c(F)c3[nH]1)C2` [Example I-507] belongs 10000 to 100000 nM. To `COc1ccccc1-c1cc(C2=CCCN(C(=O)CCn3ccnn3)C2)c(F)c2[nH]c(C(=O)N3CCN(c4[nH]ncc4OC)CC3)cc12` [Example I-508] belongs < 100 nM. Consider `COc1ccccc1-c1cc(C2=CCCN(C(=O)CCn3ccnn3)C2)c(F)c2[nH]c(C(=O)N3Cc4c(C)nn(C)c4C3)cc12` [Example I-509], for which the IC50 was < 100 nM. Regarding `COc1ccccc1-c1cc(C2=CCCN(C(=O)CCn3ccnn3)C2)c(F)c2[nH]c(C(=O)N3CCN(c4ncc(F)c(F)c4OC)CC3)cc12` [Example I-510], the IC50 was < 100 nM.

For `COc1ccccc1-c1cc(C2=CCCN(C(=O)CCn3ccnn3)C2)c(F)c2[nH]c(C(=O)N3CC=C(C4CC4)CC3)cc12` [Example I-511], the IC50 was < 100 nM. With `COc1ccccc1-c1cc(C2CN(C(=O)CCn3ccnn3)CC(F)(F)C2)c(F)c2[nH]c(C(=O)N3Cc4cnn(C)c4C3)cc12` (centres unmarked) [Example I-512] the figure was < 100 nM; with `COc1ccncc1-c1cc(C2CN(C(=O)CCn3ccnn3)CC(F)(F)C2)c(F)c2[nH]c(C(=O)N3CCN(c4ncc(F)cc4OC)CC3)cc12` (centres unmarked) [Example I-513], < 100 nM. As for `CCc1cc(C)ncc1-c1cc(C2=CCCN(C(=O)CCn3cccn3)C2)c(F)c2[nH]c(C(=O)N3CCN(c4cc(C)ccc4OC)CC3)cc12` [Example I-515], the IC50 is < 100 nM. Take `COc1ccccc1-c1cc(C2=CCCN(C(=O)CCn3ccnn3)C2)c(F)c2[nH]c(C(=O)N3CCc4cnn(C)c4C3)cc12` [Example I-516]: the IC50 was < 100 nM. To `CCc1nc(C)ccc1-c1cc(C(=O)N2CCN(c3ncc(F)cc3OC)CC2)cc2cc(C3=CCCN(C(=O)CCn4ccnn4)C3)n(CC3CC3)c12` [Example I-517] belongs < 100 nM. To `COc1ccccc1-c1cc(C2=CCCN(C(=O)CCn3ccnn3)C2)c(F)c2[nH]c(C(=O)N3CCc4c(cnn4C)C3)cc12` [Example I-518] belongs < 100 nM; to `CCc1cc(C)ncc1-c1cc(C2=CCCN(C(=O)CCn3ccnn3)C2)c(F)c2[nH]c(C(=O)N3CCN(c4nccnc4OC)CC3)cc12` [Example I-519], < 100 nM.

For `COc1ccccc1-c1cc(C(=O)N2CCN(c3ncc(F)cc3OC)CC2)cc2cc(C3=CCCN(C(=O)CCn4ccnn4)C3)n(CC(C)C)c12` [Example I-521], the IC50 is < 100 nM. In the case of `CCc1nc(C)ccc1-c1cc(C(=O)N2CCN(c3ncc(F)cc3OC)CC2)cc2cc(C3=CCCN(C(=O)CCn4cccn4)C3)n(CC3CC3)c12` [Example I-522], the IC50 is < 100 nM.

Turning to `CCc1nc(C)ccc1-c1cc(C(=O)N2CCN(c3ncc(F)cc3OC)CC2)cc2cc(C3=CCCN(C(=O)CCn4ccnn4)C3)n(CC(C)C)c12` [Example I-524], the IC50 was < 100 nM. To `CCc1cc(C)ncc1-c1cc(C2=CCCN(C(=O)CCc3nccs3)C2)c(F)c2[nH]c(C(=O)N3CCN(c4ncc(F)cc4OC)CC3)cc12` [Example I-525] belongs < 100 nM; to `CCc1cc(C)ncc1-c1cc(C2=CCCN(C(=O)CCc3nccs3)C2)c(F)c2[nH]c(C(=O)N3CCN(c4nc(C)ccc4OC)CC3)cc12` [Example I-526], < 100 nM; to `CCc1nc(C)ccc1-c1cc(C(=O)N2CCN(c3ncc(F)cc3OC)CC2)cc2cc(C3=CCCN(C(=O)CCC(=O)O)C3)n(CC3CC3)c12` [Example I-527], < 100 nM.

`CCc1cc(C)ncc1-c1cc(C2=CCCN(C(=O)CCn3ccnn3)C2)c(F)c2[nH]c(C(=O)N3Cc4cnn(CC)c4C3)cc12` [Example I-529]: the IC50 is < 100 nM. To `CCn1ncc2c1CN(C(=O)c1cc(-c3ccccc3OC)c3c(c1)cc(C1=CCCN(C(=O)CCn4ccnn4)C1)n3CC1CC1)C2` [Example I-530] belongs < 100 nM.

For `CCc1cc(C)ncc1-c1cc(C2=CCCN(C(=O)CCn3ccnn3)C2)c(F)c2[nH]c(C(=O)N3Cc4cnn(C)c4C3)cc12` [Example I-531], the IC50 was < 100 nM. With `COc1cc(F)cnc1N1CCN(C(=O)c2cc3c(C(F)F)cc(C4=CCCN(C(=O)CCn5ccnn5)C4)c(F)c3[nH]2)CC1` [Example I-532] the figure was < 100 nM; with `CCc1cc(C)ncc1-c1cc(C(=O)N2CCN(c3ncc(F)cc3OC)CC2)cc2cc(C3=CCCN(C(=O)CCn4ccnn4)C3)n(CC3CC3)c12` [Example I-533], < 100 nM; with `CCc1nc(C)ccc1-c1cc(C(=O)N2CCN(c3ccc(F)cc3OC)CC2)cc2cc(C3=CCCN(C(=O)CCn4ccnn4)C3)n(CC3CC3)c12` [Example I-534], > 100000 nM.

For `CCc1nc(C)ccc1-c1cc(C(=O)N2Cc3cnn(CC)c3C2)cc2cc(C3=CCCN(C(=O)CCn4ccnn4)C3)n(CC3CC3)c12` [Example I-535], the IC50 was > 100000 nM. To `CCc1cc(C)ncc1-c1cc(C2=CCCN(C(=O)CCn3ccnn3)C2)c(F)c2[nH]c(C(=O)N3CCN(C4CC4)CC3)cc12` [Example I-536] belongs < 100 nM; to `CCc1cc(C)ncc1-c1cc(C2=CCCN(C(=O)CCn3cccn3)C2)c(F)c2[nH]c(C(=O)N3Cc4cnn(CC)c4C3)cc12` [Example I-537], < 100 nM; to `CCc1cc(C)ncc1-c1cc(C2=CCCN(C(=O)CCc3nccs3)C2)c(F)c2[nH]c(C(=O)N3Cc4cnn(CC)c4C3)cc12` [Example I-538], < 100 nM. With `CCc1nc(C)ccc1-c1cc(C(=O)N2CCN(c3ncc(F)cc3OC)CC2)cc2cc(C3=CCCN(C(=O)C(C)C(=O)O)C3)n(CC3CC3)c12` (centres unmarked) [Example I-539] the figure was < 100 nM; with `CCc1cn[nH]c1N1CCN(C(=O)c2cc3c(-c4cnccc4OC)cc(C4=CCCN(C(=O)CCn5ccnn5)C4)c(F)c3[nH]2)CC1` [Example I-540], < 100 nM.

Take `COc1ccccc1-c1cc(C2=CCCN(C(=O)CCn3ccnn3)C2)c(F)c2[nH]c(C(=O)N3Cc4ncn(C)c4C3)cc12` [Example I-541]: the IC50 was < 100 nM. To `CCc1cnccc1-c1cc(C(=O)N2CCN(c3ncc(F)cc3OC)CC2)cc2cc(C3=CCCN(C(=O)CCn4ccnn4)C3)n(CC3CC3)c12` [Example I-542] belongs > 100000 nM. On to `CCn1nccc1-c1cc(C(=O)N2Cc3cnn(CC)c3C2)cc2cc(C3=CCCN(C(=O)CCn4ccnn4)C3)n(CC3CC3)c12` [Example I-544], for which the IC50 is < 100 nM. To `CCc1nc(C)ccc1-c1cc(C(=O)N2CCN(c3nc(C)c(F)cc3OC)CC2)cc2cc(C3=CCCN(C(=O)CCn4ccnn4)C3)n(CC3CC3)c12` [Example I-546] belongs > 100000 nM. To `CCc1nc(C)ccc1-c1cc(C(=O)N2CCN(C3CC3)CC2)cc2c(F)c(C3=CCCN(C(=O)CCn4ccnn4)C3)n(CC3CC3)c12` [Example I-548] belongs > 100000 nM; to `CCc1nc(C)ccc1-c1cc(C(=O)N2Cc3cnn(CC)c3C2)c(F)c2cc(C3=CCCN(C(=O)CCn4ccnn4)C3)n(CC3CC3)c12` [Example I-549], > 100000 nM.

As for `CCc1ccc(-c2cc(C(=O)N3CCN(c4ncc(F)cc4OC)CC3)cc3cc(C4=CCCN(C(=O)C5CC5C(=O)O)C4)n(CC4CC4)c23)c(C)n1` (centres unmarked) [Example I-550], the IC50 was > 100000 nM. With `CNc1ccc(-c2cc(C3=CCCN(C(=O)C4Cc5ccccc5CN4C=O)C3)cc3[nH]c(C(=O)N(C)C)cc23)cc1` (centres unmarked) [Example I-551] the figure was < 100 nM; with `COc1ccccc1-c1cc(C2=CCCN(C(C)=O)C2)c(F)c2sc(C(=O)N(C)C)cc12` [Example I-552], 100 to 1000 nM. With `COc1ccccc1-c1cc(C2=CCCN(C(C)=O)C2)c(F)c2[nH]c(C(=O)N3CCN(c4ncccc4OC)CC3)cc12` [Example I-553] the figure was 100 to 1000 nM. With `COc1cnccc1-c1cc(C2=CCCN(C(C)=O)C2)c(F)c2sc(C(=O)N(C)C)cc12` [Example I-554] the figure was 100 to 1000 nM; with `COc1ccncc1-c1cc(C2=CCCN(C(C)=O)C2)c(F)c2sc(C(=O)N(C)C)cc12` [Example I-555], 100 to 1000 nM. `COc1cccnc1N1CCN(C(=O)c2cc3c(-c4cnccc4OC4CC4)cc(C4=CCCN(C(=O)CCn5ccnn5)C4)c(F)c3[nH]2)CC1` [Example I-556]: the IC50 is < 100 nM. On to `COc1cccnc1N1CCN(C(=O)c2cc3c(N4CCN(C)CC4)cc(C4=CCCN(C(=O)CCn5ccnn5)C4)c(F)c3[nH]2)CC1` [Example I-557], for which the IC50 is < 100 nM.

Turning to `COc1cccnc1N1CCN(C(=O)c2cc3c(-c4ccccc4OC(F)(F)F)cc(C4=CCCN(C(=O)CCn5ccnn5)C4)c(F)c3[nH]2)CC1` [Example I-558], the IC50 is < 100 nM.

(Values after patent US20250214977A1, “STAT6 INHIBITORS AND USES THEREOF” (Kymera Therapeutics, Inc., priority 2024, published 2025).)
